According to PubChem BioAssay (Tox21):
Values joined by “and” are separate entries in the source; they are usually repeats but may differ in a detail not shown here. Equal entries are not always repeated. Inconclusive means that the source gave no clear call. Such entries were picked first, then a sample of the others. For some of these results: A potency beside an inconclusive call is a rough fit, not a confirmed value. Where a structure was tested more than once in an assay, its records may differ in their call. Active and inactive are the calls of the source. Unless noted, calls follow the shape of the dose curve; as a rule, active = well fitted curve in the direction sought with a large enough effect in the repeat runs; inconclusive = weak or mixed curves; inactive = no such curve, though single readings can be large; an effect the other way counts as inactive or inconclusive.

Key:
[1] = qHTS assay to identify small molecule agonists of the sonic hedgehog signaling (Shh) pathway - cell viability counter screen (AID 1259366); also: nearly all actives have a fitted effect of over 50% in size
In short: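 After a 4hr attachment at 37C, NIH/3T3 cells bearing an integrated Gli1-driven luciferase reporter were dosed with compounds. Treatment lasted 24hr, with the final hour including CellTiter-Fluor for a fluorescence viability measurement.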

[2] = qHTS assay to identify small molecule antagonists of the sonic hedgehog signaling (Shh) pathway - cell viability counter screen (AID 1259367); also: nearly all actives have a fitted effect of over 55% in size
In short: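 Conditioned medium drove Shh signaling in 3T3 Gli1-Luc cells exposed to compounds at 37C and 5% CO2. Viability was determined from CellTiter-Fluor fluorescence, with reagent incubated 1 hr after 23 hr of treatment.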

[3] = biological target: Progesterone receptor (Homo sapiens) (UniProt P06401); test: qHTS assay to identify small molecule agonists of the progesterone receptor (PR) signaling pathway (AID 1346784; calls by dose curve; also: nearly all actives have a fitted effect of over 30% in size; as to activation: % is scaled to controls: 0 for no effect and ±100 for the full control effect); conditions: PR-UAS-bla HEK293T, beta-lactamase FRET ratio, 16 h; activation: at 92.4 µM (top of the series) unless noted
In short: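 Using charcoal-stripped serum (2%) to limit endogenous steroids, PR-UAS-bla HEK 293T cells received compounds for 16 hr at 37C after 6 hr plating; beta-lactamase FRET fluorescence was recorded following 2 hr substrate loading at room temperature.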

[4] = qHTS assay to identify small molecule agonists of the progesterone receptor (PR) signaling pathway - cell viability counter screen (AID 1346799; calls by dose curve; also: nearly all actives have a fitted effect of over 45% in size)
In short: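 Cytotoxicity in PR-bla HEK293T cells: 16 h compound, 37C; CellTiter-Glo added post-FRET read; luminescence after 30 min RT.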

[5] = qHTS assay to identify small molecule agonists of the androgen receptor (AR) signaling pathway in the presence of an antagonist - cell viability counter screen (AID 1259379); also: nearly all actives have a fitted effect of over 25% in size
In short: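 Each compound was tested at 15 concentrations on MDA-kb2 cells in the presence of 3.0uM nilutamide. Viability was measured by CellTiter-Fluor fluorescence after a 16 hr incubation at 37C in a CO2-free atmosphere.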

[6] = qHTS assay to identify small molecule agonists of the estrogen receptor alpha (ER-alpha) signaling pathway in the presence of an antagonist - cell viability counter screen (AID 1259386);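 also: cells exposed to compounds for 22 h at 37 °C before the viability read; nearly all actives have a fitted effect of over 30% in size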
In short: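 Using estrogen-depleted VM7Luc4E2 cells, the 15-concentration compound series was applied together with 10.0nM ICI-182,780 and incubated 22hr at 37C/5% CO2. Cell viability was then scored by CellTiter-Fluor.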

[7] = biological target: Progesterone receptor (Homo sapiens) (UniProt P06401); test: qHTS assay to identify small molecule antagonists of the progesterone receptor (PR) signaling pathway (AID 1346795; active = well fitted inhibition curve with a large enough effect in the signal ratio in the repeat runs, not every such curve was filed as active; inconclusive = weak or mixed curves; the % refers to the signal ratio; as to activity change, negative = inhibition: % is scaled to controls: 0 for no effect and ±100 for the full control effect); conditions: PR-UAS-bla HEK293T, beta-lactamase FRET ratio, 16 h; activity change, negative = inhibition: at 92.4 µM (top of the series) unless noted
In short: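 Inhibition of R5020-induced (1 nM final) beta-lactamase reporter signal in PR-UAS-bla HEK293T cells was scored by FRET fluorescence after overnight (16 hr) compound treatment.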

[8] = qHTS assay to identify small molecule antagonists of the TGF-beta/Smad signaling pathway - cell viability counter screen (AID 1346824); also: nearly all actives have a fitted effect of over 50% in size
In short: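 SBE-bla HEK 293T cells were plated overnight at 37 C, then given compounds in DMSO plus TGF-beta1 (added as 0.25 ng/mL solution) for 5 hr. After the bla read, CellTiter-Glo was added to the same wells and luminescence read after 30 min at room temperature.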

[9] = qHTS assay to identify small molecule antagonists of the sonic hedgehog signaling (Shh) pathway (AID 1259369; calls by dose curve; also: nearly all actives have a fitted effect of over 45% in size)
In short: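 Read-out is luminescence from a firefly luciferase gene controlled by the Gli1 response element, in 3T3Gli1-Luc cells pre-incubated 4hr then exposed to compounds and conditioned medium for 24hr.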

[10] = biological target: Estrogen receptor beta (Homo sapiens) (UniProt Q92731); test: qHTS assay to identify small molecule antagonists of the estrogen receptor beta (ER-beta) signaling pathway (AID 1259378; active = well fitted inhibition curve with a large enough effect in the signal ratio in the repeat runs, not every such curve was filed as active; inconclusive = weak or mixed curves, or effect the other way; inactive = no such curve, though single readings can be large or run the other way; the % refers to the signal ratio; as to activity, negative = inhibition: % is scaled to controls: 0 for no effect and ±100 for the full control effect); conditions: ER-beta-UAS-bla HEK293T, beta-lactamase FRET ratio, 16 h; activity, negative = inhibition: at 92.4 µM (top of the series) unless noted
In short: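 ER-beta-UAS-bla HEK293T (GripTite) cells in 2% charcoal-stripped FBS medium were preincubated 6 hr at 37C, dosed with compound, then stimulated with 1 nM E2 (final) for 16 hr; beta-lactamase reporter read by B/G FRET fluorescence after 2 hr substrate loading.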

[11] = qHTS assay to identify small molecule antagonists of the progesterone receptor (PR) signaling pathway - cell viability counter screen (AID 1346798); also: nearly all actives have a fitted effect of over 50% in size
In short: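 ATP content as viability readout: CellTiter-Glo luminescence, 30 min room temperature, in PR-UAS-bla HEK293T cells after 16 hr compound/R5020 treatment at 37C and 5% CO2.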

[12] = qHTS assay to identify small molecule agonists of the sonic hedgehog signaling (Shh) pathway (AID 1259368; calls by dose curve; also: nearly all actives have a fitted effect of over 15% in size)
In short: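 Following a 24 hr incubation with DMSO-dissolved compounds at 37 C, 5% CO2, Gli1-Luc NIH/3T3-derived cells received luciferase reagent for 30 min at room temperature prior to luminescence measurement.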

[13] = qHTS assay to identify small molecule agonists of the estrogen receptor beta (ER-beta) signaling pathway - cell viability counter screen (AID 1259380); also: nearly all actives have a fitted effect of over 30% in size
In short: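 Compounds dissolved in DMSO were pin-transferred onto ER-beta-UAS-bla HEK293T cells that had settled 6 hr, and exposure ran 16 hr at 37C. Following the reporter read, CellTiter-Glo luminescence after 30 min at room temperature indicated cytotoxicity.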

[14] = biological target: Estrogen receptor beta (Homo sapiens) (UniProt Q92731); test: qHTS assay to identify small molecule agonists of the estrogen receptor beta (ER-beta) signaling pathway (AID 1259377; active = well fitted activation curve with a large enough effect in the signal ratio in the repeat runs, not every such curve was filed as active; inconclusive = weak or mixed curves, or effect the other way; the % refers to the signal ratio); conditions: ER-beta-UAS-bla HEK293T, beta-lactamase FRET ratio, 16 h; activation: at 92.4 µM (top of the series) unless noted
In short: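 In HEK293T cells bearing a UAS-beta-lactamase reporter under ER-beta control, DMSO-delivered compounds were incubated for 16 hr at 37C. Activity was detected as fluorescence 2 hours after LiveBLAzer B/G FRET substrate addition.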

[15] = qHTS assay to identify small molecule antagonists of the estrogen receptor beta (ER-beta) signaling pathway - cell viability counter screen (AID 1259382); also: nearly all actives have a fitted effect of over 55% in size
In short: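 CellTiter-Glo ATP luminescence measured after the LiveBLAzer read in the same wells; ER-beta-UAS-bla HEK293T cells, 16 hr compound treatment with 1nM 17-beta-estradiol agonist at 37C, 5% CO2.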

[16] = biological target: Thyrotropin receptor (Homo sapiens) (UniProt P16473); test: qHTS assay to identify small molecule antagonists of the thyroid stimulating hormone receptor (TSHR) signaling pathway (AID 1259385; calls by dose curve; also: nearly all actives have a fitted effect of over 20% in size); conditions: TSHR-HEK293 cAMP HTRF, TSH-stimulated antagonist mode; activity change, negative = inhibition: at 92.4 µM (top of the series) unless noted
In short: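 TSHR-HEK293 cells were plated and held 18 h at 37C/5% CO2, then given compound plus Ro20-1724 and stimulated with TSH at 1.5 ng/mL final. After 30 min at room temperature, cAMP was detected with cAMP-d2/anti-cAMP-cryptate (1 h) by fluorescence.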
Potency is read from the fitted curve at half-maximal effect; tags tell the direction and shape of the fitted curve or compound fluorescence and quenching.

Sequence of UniProt Q92731 (Q92731 whole entry, looked up): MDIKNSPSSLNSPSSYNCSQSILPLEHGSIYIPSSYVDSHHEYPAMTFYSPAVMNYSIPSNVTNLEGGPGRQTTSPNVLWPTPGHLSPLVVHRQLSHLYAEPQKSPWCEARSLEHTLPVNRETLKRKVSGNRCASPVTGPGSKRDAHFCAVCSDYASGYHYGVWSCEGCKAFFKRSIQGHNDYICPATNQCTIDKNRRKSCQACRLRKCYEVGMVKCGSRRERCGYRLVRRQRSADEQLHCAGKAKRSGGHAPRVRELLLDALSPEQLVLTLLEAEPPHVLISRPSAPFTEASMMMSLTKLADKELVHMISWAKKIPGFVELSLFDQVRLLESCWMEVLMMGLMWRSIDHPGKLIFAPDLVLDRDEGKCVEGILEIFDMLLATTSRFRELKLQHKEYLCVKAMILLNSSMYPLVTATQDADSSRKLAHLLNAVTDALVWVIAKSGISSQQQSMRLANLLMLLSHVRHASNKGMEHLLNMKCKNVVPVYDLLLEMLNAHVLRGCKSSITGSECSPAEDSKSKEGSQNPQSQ
Sequence of UniProt P06401 (P06401 whole entry, looked up): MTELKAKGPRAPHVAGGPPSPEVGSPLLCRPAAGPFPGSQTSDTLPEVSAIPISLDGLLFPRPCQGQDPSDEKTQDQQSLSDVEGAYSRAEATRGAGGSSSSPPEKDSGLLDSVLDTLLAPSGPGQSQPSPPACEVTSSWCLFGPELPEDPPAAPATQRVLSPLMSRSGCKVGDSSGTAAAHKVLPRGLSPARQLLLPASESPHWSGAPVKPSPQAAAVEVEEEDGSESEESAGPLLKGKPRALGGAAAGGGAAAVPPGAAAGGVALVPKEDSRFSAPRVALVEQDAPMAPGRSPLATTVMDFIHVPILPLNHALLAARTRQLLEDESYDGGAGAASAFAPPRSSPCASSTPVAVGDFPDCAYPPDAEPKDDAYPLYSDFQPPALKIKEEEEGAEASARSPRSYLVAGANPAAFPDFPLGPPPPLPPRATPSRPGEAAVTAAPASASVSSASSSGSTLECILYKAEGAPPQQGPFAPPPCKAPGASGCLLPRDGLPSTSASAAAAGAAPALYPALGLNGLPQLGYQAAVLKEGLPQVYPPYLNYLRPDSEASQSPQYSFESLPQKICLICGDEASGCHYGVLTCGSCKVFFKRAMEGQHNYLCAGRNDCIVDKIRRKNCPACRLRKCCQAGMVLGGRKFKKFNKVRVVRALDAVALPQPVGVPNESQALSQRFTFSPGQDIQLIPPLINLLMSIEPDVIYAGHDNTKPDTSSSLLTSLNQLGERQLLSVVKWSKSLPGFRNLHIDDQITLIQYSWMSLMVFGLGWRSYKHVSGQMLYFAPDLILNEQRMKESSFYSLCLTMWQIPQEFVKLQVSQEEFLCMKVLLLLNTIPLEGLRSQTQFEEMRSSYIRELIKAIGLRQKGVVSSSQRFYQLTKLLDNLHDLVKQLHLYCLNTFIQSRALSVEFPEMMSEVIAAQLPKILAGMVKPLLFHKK
Sequence of UniProt P16473 (P16473 whole entry, looked up): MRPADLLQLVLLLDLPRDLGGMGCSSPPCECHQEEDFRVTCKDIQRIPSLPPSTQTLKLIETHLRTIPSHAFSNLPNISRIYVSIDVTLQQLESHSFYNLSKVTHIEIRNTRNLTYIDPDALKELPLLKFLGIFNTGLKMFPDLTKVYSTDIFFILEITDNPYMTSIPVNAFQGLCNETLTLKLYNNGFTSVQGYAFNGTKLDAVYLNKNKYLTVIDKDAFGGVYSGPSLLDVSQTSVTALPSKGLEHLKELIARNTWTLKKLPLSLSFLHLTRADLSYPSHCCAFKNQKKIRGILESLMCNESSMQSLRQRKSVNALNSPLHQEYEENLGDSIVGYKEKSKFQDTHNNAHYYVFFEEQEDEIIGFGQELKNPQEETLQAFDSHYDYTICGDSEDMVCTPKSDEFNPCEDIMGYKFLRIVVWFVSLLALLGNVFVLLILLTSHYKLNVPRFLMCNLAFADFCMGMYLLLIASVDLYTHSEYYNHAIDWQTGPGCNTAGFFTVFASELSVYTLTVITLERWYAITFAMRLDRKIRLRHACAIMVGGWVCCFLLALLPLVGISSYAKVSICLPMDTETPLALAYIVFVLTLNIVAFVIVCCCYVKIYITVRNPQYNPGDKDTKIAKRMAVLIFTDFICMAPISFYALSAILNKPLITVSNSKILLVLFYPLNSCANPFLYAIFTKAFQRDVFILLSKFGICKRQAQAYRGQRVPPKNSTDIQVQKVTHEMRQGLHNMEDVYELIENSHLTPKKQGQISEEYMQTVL

Nc1nc(N)c(N)c(N)n1
Potency [1]: inconclusive: 34.6 µM [rising, partial curve] | Potency [2]: inconclusive: 61.4 µM [rising, partial curve] | Potency [3]: active: 7.74 µM | Potency [4]: inconclusive: 17.3 µM [rising, full curve]

N#Cc1cc([N+](=O)[O-])ccc1N
Potency [1]: inconclusive: 48.6 µM [cytotoxic] | Potency [2]: inconclusive: 77 µM [cytotoxic, partial curve, poor fit] | Potency [5]: inconclusive: 54.5 µM [cytotoxic, partial curve] | Potency [6]: inconclusive: 54.5 µM [cytotoxic] | activity change, negative = inhibition [7]: inconclusive: -39.8% | Potency [8]: inconclusive: 61.6 µM [rising, single point]

Cc1c(Cl)c(=O)oc2cc(OP(=O)(OCCCl)OCCCl)ccc12
Potency [1]: inconclusive: 13.3 µM [rising, full curve] | Potency [9]: inconclusive: 33.5 µM [inhibitor, single point] | Potency [10]: inconclusive: 33.5 µM [inhibitor, partial curve, poor fit] | Potency [7]: active: 7.5 µM | Potency [11]: inconclusive: 13.3 µM [rising, full curve] | Potency [4]: inconclusive: 0.596 µM [cytotoxic, full curve, poor fit]

CC(Cc1ccc(OCC(=O)O)cc1)NCC(O)c1csc(C(F)(F)F)n1 (stereo unspecified)
Potency [1]: active: 6.11 µM | Potency [2]: active: 3.86 µM | Potency [10]: inactive | Potency [6]: inconclusive: 48.6 µM [cytotoxic, partial curve, poor fit] | Potency [3]: inactive

Cn1c(N)nc2c3cccnc3ccc21
Potency [1]: active: 26 µM | Potency [2]: active: 26 µM | Potency [6]: active: 26 µM

O.O.O.O.O.O.O.O=S(=O)([O-])[O-].[Co+2]
Potency [1]: inconclusive: 69 µM [single point] | Potency [12]: active: 61.5 µM | Potency [13]: inactive | Potency [6]: inconclusive: 61.5 µM [cytotoxic, partial curve] | Potency [11]: inconclusive: 27.5 µM [rising, partial curve] | Potency [4]: inconclusive: 24.5 µM [rising, partial curve]

COc1cc(C=O)cc2c1[C@H](COC(N)=O)[C@]1(OC(C)=O)ON2C[C@H]2[C@@H]1N2C(C)=O
Potency [1]: active: 6.11 µM | Potency [2]: inconclusive: 3.06 µM [cytotoxic, full curve, poor fit] | Potency [9]: inconclusive: 0.0486 µM [inhibitor, full curve, poor fit] | Potency [6]: inconclusive: 68.6 µM [cytotoxic, partial curve, poor fit] | activation [3]: inconclusive: -16.3% | Potency [7]: inconclusive: 3.44 µM [rising, partial curve] | Potency [4]: inconclusive: 19.3 µM [rising, full curve]

CCOc1nc(F)cc2nc(S(=O)(=O)Nc3c(Cl)cccc3Cl)nn12
Potency [1]: inconclusive: 61.1 µM [cytotoxic, partial curve, poor fit] | Potency [2]: inconclusive: 48.6 µM [cytotoxic, partial curve] | Potency [14]: inconclusive: 48.6 µM [fluorescent, partial curve]

O=c1[nH]c2ccccc2n1CCCN1CCC(n2c(=O)[nH]c3cc(Cl)ccc32)CC1
Potency [1]: inconclusive: 26.6 µM [cytotoxic, partial curve] | Potency [2]: inconclusive: 15 µM [cytotoxic, partial curve] | activity, negative = inhibition [10]: inconclusive: 54.8% [at 42.5 µM] | Potency [13]: active: 9.44 µM | Potency [15]: inconclusive: 11.9 µM [cytotoxic, partial curve] | Potency [16]: active: 29.8 µM | Potency [6]: inconclusive: 23.7 µM [cytotoxic, partial curve] | Potency [4]: inconclusive: 33.5 µM [cytotoxic, single point] | Potency [8]: inactive

Cn1cc(-c2ccccc2)c(=O)c(-c2cccc(C(F)(F)F)c2)c1
Potency [1]: inconclusive: 33.5 µM [cytotoxic, partial curve] and inconclusive: 43.3 µM [cytotoxic, partial curve] | Potency [2]: inconclusive: 26.6 µM [cytotoxic, partial curve] and inconclusive: 48.6 µM [cytotoxic, partial curve] | Potency [9]: inconclusive: 24.3 µM [inhibitor, full curve, poor fit] | Potency [13]: inconclusive: 30.6 µM [cytotoxic, full curve] | Potency [6]: inconclusive: 33.5 µM [cytotoxic, partial curve] and inconclusive: 38.6 µM [cytotoxic, partial curve] | Potency [7]: inconclusive: 59.6 µM [falling, single point]

Clc1ccc(C(OCCN2CCCCC2)c2ccccc2)cc1 (stereo unspecified)
Potency [1]: inactive | Potency [9]: inconclusive: 26.6 µM [inhibitor, single point] | Potency [10]: inactive | Potency [5]: inconclusive: 26.6 µM [cytotoxic, partial curve, poor fit] | Potency [13]: active: 18.8 µM | activity change, negative = inhibition [7]: inconclusive: -20.2% [at 42.5 µM]
